In PMC12136788:
This is one part of the list.

B1: chr2:15768762:15768763:+_ENSG00000079785_ENST00000233084|hu_mus|FALSE|FALSE (ssRNA)
RNA: GGGAGUUCUACAGUCCGACGAUCAGGCAGGGUGACGUUGAUCACAUAAGGAACGCCAUGGAUAUCAAUCCCUCUAGCAGCUACAUCUGUGCAAAUCAAGAAUCUUACGUCUCCUUUCUUAAAUCGUUCCAAGUUUUGCUUUCUCAACAGAGGAUUGAGCAUCA
B2: chr18:35732517:35732518:+_ENSMUSG00000037236_ENSMUST00000166793|mus_hu|motif|central (ssRNA)
RNA: GGGAGUUCUACAGUCCGACGAUCUAUAGAGCACAGAUGGGGAUAACCCUUCGGUAAGAGUCCAUGGAAGUCUUCAAUAUUGCGGCUUGGAGGAGCGCCUCUCUUUUUCUCAAAGAGAGAUCUCUCUUGUAAGGGGCCAGGACCCAACAGAGGAUUGAGCAUCA
B3: 49511034_49520437_724_CDS_ENSG00000101126_ENST00000396029|human|control|control (ssRNA)
RNA: GGGAGUUCUACAGUCCGACGAUCUUUUGUCCGAUAGUCCUGGUUUUUCGUAAGUGAUGGGUCCCACAGUCCUACAUCCUCCCAUGUAGUGUUUUUCAAAUAAAAGUCAUUAGGUUCAAAUUGUUUAAAAUCUUCUAUAUGUUCCAACAGAGGAUUGAGCAUCA
B4: chr17:27717376:27717377:-_ENSMUSG00000024213_ENSMUST00000025050|mus_hu|FALSE|FALSE (ssRNA)
RNA: GGGAGUUCUACAGUCCGACGAUCUAUAGGACAAAUUAUUGGAAGUUUUCAUCUCAUACUGGUAUCUUUUAAUAAAAAAAAAAAAUUAAAAAUCAAAGAAAACGUCUGGCCAGGGCCAGGAUAAGACAAACAGGAACACUUCAGCAACAGAGGAUUGAGCAUCA
B5: chr14:89327608:89327609:+_ENSG00000165533_ENST00000346301|hu_mus|motif|central (ssRNA)
RNA: GGGAGUUCUACAGUCCGACGAUCUUCCUCAUAGAUCCUGGCAAUUCCACAAAGCAGGGUCACCUCUCCUGGAAACUUAUCGGAGCCUUGUUUAAAUAGAUUUAAAGCAGUCACAGGUUGAUCCAAUAUGAUAUAAACUUUUGCCAACAGAGGAUUGAGCAUCA
B6: chr1:184663225:184663226:-_ENSG00000116406_ENST00000318130|hu_hu|motif|central (ssRNA)
RNA: GGGAGUUCUACAGUCCGACGAUCACCAACAGAUUGUUUAGCAAGUCAUAGCUCAUCCUUCUCCAUCAUUUCAAAUGCUUCGGUAUCUUCAUUCCAGUCUGCUAAUAUGGAGUCUAUAGGCUGGACCUUUUUACCCCAGCUAACCAACAGAGGAUUGAGCAUCA
B7: chr7:140402705:140402706:+_ENSG00000090266_ENST00000247866|hu_hu|motif|central (ssRNA)
RNA: GGGAGUUCUACAGUCCGACGAUCUCCGCUGAAGAACUCGCUCUGGAACACCUGGGAUCUGGUCAGCUGGGGGAACUGUCGGUACCGGGGCUCAAUGUGCACACCACCACCGGCAUGACGGACUCCACCAUCUCCAGCAGUCCGCAACAGAGGAUUGAGCAUCA
B8: chr5:100466915:100466916:-_ENSMUSG00000029328_ENSMUST00000153442|mus_mus|motif|central (ssRNA)
RNA: GGGAGUUCUACAGUCCGACGAUCAGCACAAAUCCAAAUCCUCUUGAUCUUCCCGUGACUGGGUCUGUUUUAAUUGUGCAGUCGGCCACUUCCCCAAAUCGAGACAAAUAUUCAGUCAGAUCUUUCUUGCUUGUAUCCCAGCUCCAACAGAGGAUUGAGCAUCA
B9: chr1:115268999:115269000:-_ENSG00000009307_ENST00000339438|hu_mus|FALSE|FALSE (ssRNA)
RNA: GGGAGUUCUACAGUCCGACGAUCUAAAAGUCUCACGCAAGUUGCAAUCUGCUGUCCAGGCCUCUGUUUGUCACUAAUACUAAAUUCAACCUUAUCUCCUAUUUGAGGAGAAGUAGAUCCUUCCACAUCCUUGGCUUGAAAAGCCAACAGAGGAUUGAGCAUCA
B10: chr17:27085315:27085316:-_ENSG00000173065_ENST00000581407|hu_hu|motif|central (ssRNA)
RNA: GGGAGUUCUACAGUCCGACGAUCACCUAGGAGGGUGAUGUAUGAUGUGUUGCACGUGGAGGGCAGCAGGGCUACCGGUCGGUACCCUGGGUGCUGAAUAUGAAGACUUCGACUCUCUGUGGGAUCGGGGGCUCGGUUGCCAGGCAACAGAGGAUUGAGCAUCA
B11: 46342315_46355519_476_3pUTR_ENSG00000139218_ENST00000369367|human|control|control (ssRNA)
RNA: GGGAGUUCUACAGUCCGACGAUCUGAACCUUAACAUAACCUUCCAAUGCACUGAAUUUAAACACUGCCUGAAAAGGUUUACGGUCAAUAGGACAUGAAGCCAGUGUCUCUGCCCAUUUAAGAAUACAAGUCAUACAGAAGACACAACAGAGGAUUGAGCAUCA
B12: chr6:40197388:40197389:+_ENSMUSG00000057716_ENSMUST00000061740|mus_mus|mus_mus_mus_hu_False|78_88 (ssRNA)
RNA: GGGAGUUCUACAGUCCGACGAUCGAGACACUGGGGUGGAUUUAUUCUCAGUUUGGGUGCUAGCCUCCCACUAAGACUGUUAUUUUGGGAUUCAUGGCCUUGAAUAUCAAGAGGGAAAGGAAGAGGAUGGAAAGAGUCAAGAGUCAACAGAGGAUUGAGCAUCA
B13: chr7:80921385:80921386:+_ENSMUSG00000078670_ENSMUST00000107456|mus_mus|motif|central (ssRNA)
RNA: GGGAGUUCUACAGUCCGACGAUCUAGGGCUGAAAGAACCAGUGUCAAGUCAGGCUCCUGAGCCAGGGUGGAUCUUCCCACCGGCCGCCAUCACCACAACCCCAGUCAGAACUGGAGAACCUGACAGUGGUGGAGCUGGCCAAGCAACAGAGGAUUGAGCAUCA
B14: chr19:16212804:16212805:+_ENSG00000167460_ENST00000300933|hu_mus|hu_hu_hu_mus_False|78_108 (ssRNA)
RNA: GGGAGUUCUACAGUCCGACGAUCAACAAAUAUGCAAUGAAGGAAAGAUGUAACAUGCAAUUAAUUAAAAGCUCAGUCAGAAGGCACAUGGGCAACAAUGAUCACCCCAGCAUUCUCGCUUGGAAUGCUUAAAGACAAUCUGUUCAACAGAGGAUUGAGCAUCA
B15: chr5:92956547:92956548:-_ENSG00000113391_ENST00000395965|hu_hu|motif|central (ssRNA)
RNA: GGGAGUUCUACAGUCCGACGAUCCCAGUGAACCCAUAUUGCUUUGACAGUUGCACUCAUCUAGAAAUAAUGCAAAACGCGGUUUAGAUGUAUAUAUCACGACCCUGGGCUCUGGGAAGAAAACAAUCUAAUGAGGGGCUGGGACAACAGAGGAUUGAGCAUCA
B16: chr9:95013113:95013114:-_ENSG00000196305_ENST00000443024|hu_hu|hu_hu_hu_mus_False|48_48 (ssRNA)
RNA: GGGAGUUCUACAGUCCGACGAUCCUCAGUCAGAAAGGGCGUGUAAGGGGCCAUCAGUCUGCACAGAGAAAGCAGGACACUGAACAGGGUUUCUAGGGCCAUGACACAGUCUUCCACCCCACUCUCACCCUUUAACCUCCUCCUCAACAGAGGAUUGAGCAUCA
B17: 67067385_67067505_86_3pUTR_ENSMUSG00000029223_ENSMUST00000031131|mouse|control|control (ssRNA)
RNA: GGGAGUUCUACAGUCCGACGAUCACAAACCCGAGGAGCCGAAAAAACAGCCGGUGGAGCCGCCCAGGCUGCUGUUAUAAAGCGCCGGCCUCGCUCACUGGGAAAGCCUGAGCAGGGGAGACGGGAGCAGAAACAAGCAGAGGACAACAGAGGAUUGAGCAUCA
B18: 80012782_80013088_745_CDS_ENSG00000169727_ENST00000578552|human|control|control (ssRNA)
RNA: GGGAGUUCUACAGUCCGACGAUCCUUGAGCUUGGUGAGGAUGGCCUGGGUCUGGCUGUCACGCUCUCCUCGCUGCUCGGCAAUCUCUGGGGUGGACUCAGCCUUGCUGACGUAGCUGAGCACAUGAGACCAAUUCUGCAAGUACAACAGAGGAUUGAGCAUCA
B19: chr18:56819859:56819860:+_ENSG00000166562_ENST00000588875|hu_hu|FALSE|FALSE (ssRNA)
RNA: GGGAGUUCUACAGUCCGACGAUCAACUUUGAUUACUCUGUGAACUAUUGGAAUGUCUCGUCCUUCAACUUUAAAAACAACUAUUUCACCAGCUCUGAUUGGGUCUUCCCGGAAAUUUGUGAGGAACAGGAGGUCUCCUCUGUGCAACAGAGGAUUGAGCAUCA
B20: 98119433_98119553_737_CDS_ENSMUSG00000022987_ENSMUST00000023722|mouse|control|control (ssRNA)
RNA: GGGAGUUCUACAGUCCGACGAUCGAGAGAGUCUGUGUCUGUUCUGUGUAGAUGGCGAGAGAAGGUGUCCUCCUGAAGGAAGCGUGGGCUUAGGAGCAUUCCUGUGGAGUUCCUGGGCAUGGACUCCCAGCUUGGACCCUGCCCCAACAGAGGAUUGAGCAUCA
B21: chr7:149068622:149068623:-_ENSMUSG00000025139_ENSMUST00000001950|mus_hu|mus_mus_mus_hu_False|18_68 (ssRNA)
RNA: GGGAGUUCUACAGUCCGACGAUCGUGAGGCCUCUGAGUGUGGCUUGUGGUCUGUCCUGGGUUAGAGCUGCUGGUAACACGGAACAUACCAUCUAGAACGUUCCAGUCCCGCCUGACCAUCCACCCUCCAAUGGAGAAGAAAUCCAACAGAGGAUUGAGCAUCA
B22: 149462202_149462322_2395_CDS_ENSMUSG00000003452_ENSMUST00000086829|mouse|control|control (ssRNA)
RNA: GGGAGUUCUACAGUCCGACGAUCUAAGGCUUCCUUGUCCUUAUCAAUCAUGGGGGCCAACUCUCGGGCUGCUGCUCUUUGACGAGACAGCUGUAAGGACCUGUCCACUGCCUUCUGCAGAUGCUUGAUUUGGUCCCGGAUUAUCAACAGAGGAUUGAGCAUCA

target: T1, UNK ZnF1-3 (human, UniProt Q9C0B0 31-174); test: nsRBNS (natural sequence RNA bind-n-seq); RBNS binding buffer (assumed for nsRBNS): 25 mM Tris pH 7.5, 150 mM KCl, 3 mM MgCl2, 0.01% Triton X-100, 500 ug/ml BSA, 20 U/ml SUPERase-In, 4 C; UNK is unkempt and MSI1 is Musashi-1; names of the RNAs are library labels; protein concentration not given here; high values mean tight binding
T1 sequence: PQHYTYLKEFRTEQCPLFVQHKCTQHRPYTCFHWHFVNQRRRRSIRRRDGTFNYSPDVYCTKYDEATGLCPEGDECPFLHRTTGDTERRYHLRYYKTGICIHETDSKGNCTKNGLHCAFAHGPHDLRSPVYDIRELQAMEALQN

Binder | binding signal [enrichment R]
B1 | 0.859
B2 | 0.855
B3 | 0.858
B4 | 3.22
B5 | 1.33
B6 | 1.07
B7 | 0.887
B8 | 1.25
B9 | 1.16
B10 | 0.947
B11 | 1.06
B12 | 1.98
B13 | 0.721
B14 | 1.1
B15 | 1.61
B16 | 0.684
B17 | 1.91
B18 | 0.649
B19 | 0.93
B20 | 1.32
B21 | 0.915
B22 | 0.288
